# Laboratory results as given in paper PMC4336329 (PLoS ONE, 2015).
# About 2,200 (0.71%) of roughly 310,000 compounds showed an effect of 50% or more. The effect is printed as a negative number. Some of the results follow.
# Molecular target: human ether-à-go-go-related gene (hERG) potassium channel (human, UniProt Q12809)
# Experiment: primary screen, population patch clamp on CHO cells stably expressing hERG
# Sequence of human ether-à-go-go-related gene (hERG) potassium channel (Q12809 whole entry, looked up): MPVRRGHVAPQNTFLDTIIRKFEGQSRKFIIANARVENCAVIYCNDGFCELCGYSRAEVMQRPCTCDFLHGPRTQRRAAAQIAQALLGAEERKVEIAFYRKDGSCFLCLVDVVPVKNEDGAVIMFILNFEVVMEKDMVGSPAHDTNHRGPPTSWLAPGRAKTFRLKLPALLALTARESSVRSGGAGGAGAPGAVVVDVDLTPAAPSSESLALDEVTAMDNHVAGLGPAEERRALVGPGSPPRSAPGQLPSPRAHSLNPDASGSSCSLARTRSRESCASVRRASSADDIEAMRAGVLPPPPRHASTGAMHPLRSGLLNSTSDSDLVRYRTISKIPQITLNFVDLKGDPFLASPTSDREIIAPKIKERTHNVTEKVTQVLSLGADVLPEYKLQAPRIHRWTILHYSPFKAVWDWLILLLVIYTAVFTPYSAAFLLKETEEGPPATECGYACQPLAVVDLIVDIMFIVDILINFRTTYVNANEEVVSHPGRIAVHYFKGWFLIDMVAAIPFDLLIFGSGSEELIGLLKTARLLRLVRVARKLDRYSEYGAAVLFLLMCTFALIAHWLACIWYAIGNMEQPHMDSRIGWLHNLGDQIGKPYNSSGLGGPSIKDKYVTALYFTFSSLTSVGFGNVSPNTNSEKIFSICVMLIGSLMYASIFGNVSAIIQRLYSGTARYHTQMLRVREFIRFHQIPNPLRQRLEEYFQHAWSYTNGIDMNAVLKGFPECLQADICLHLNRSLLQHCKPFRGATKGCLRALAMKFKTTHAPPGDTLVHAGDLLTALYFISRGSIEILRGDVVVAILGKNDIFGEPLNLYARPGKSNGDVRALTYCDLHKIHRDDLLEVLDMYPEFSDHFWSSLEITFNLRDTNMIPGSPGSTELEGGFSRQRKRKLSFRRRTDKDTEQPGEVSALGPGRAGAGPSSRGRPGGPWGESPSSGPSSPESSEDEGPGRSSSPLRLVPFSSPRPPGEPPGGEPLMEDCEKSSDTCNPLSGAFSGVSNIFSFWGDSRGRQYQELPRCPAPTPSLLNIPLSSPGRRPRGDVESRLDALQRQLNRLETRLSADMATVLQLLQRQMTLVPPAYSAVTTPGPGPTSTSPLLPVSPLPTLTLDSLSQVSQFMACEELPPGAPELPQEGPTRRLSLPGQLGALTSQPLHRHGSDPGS
row,SMILES,"hERG current change (%, negative = inhibition) at 1uM"
1,CCc1ccc(NC(=O)c2ccc(OC)c([N+](=O)[O-])c2)cc1,4.3%
2,N#CC/C(N)=N/NC(=O)CCCNc1ncc(C(F)(F)F)cc1Cl,21.5%
3,COc1ccc(NC(=O)CN2CCC3(O)CCCCC3C2c2cc(OC)ccc2OC)cc1 (stereo not drawn),0.354%
4,CN1CCN(CCCNC(=O)Cn2ncc3c4ccccc4n(C)c3c2=O)CC1,12.3%
5,O=C(CSc1nc(-c2ccco2)cc(C(F)(F)F)n1)NCC1CCCO1 (stereo not drawn),5.27%
6,CCOC(=O)C1CCN(Cc2ccc(F)c(F)c2)CC1,15.2%
7,Cc1ccc(/C=N/NC(=O)c2cc(C)oc2C)cc1,10.3%
8,CC1CCN(C(=O)CSc2ccc(-c3cccc([N+](=O)[O-])c3)nn2)CC1,-36.7%
9,COc1ccc(/C=C2\CCC/C(=C\C=N\N(C)C)C2=O)cc1,6.52%
10,C#CCOc1c(/C=C\c2nc(O)c([N+](=O)[O-])c(=O)[nH]2)cc(Br)cc1OC,15.8%
11,CC(C)OCCCNC(=O)c1ccc2c(c1)S(=O)(=O)c1ccccc1C2=O,3.4%
12,O=C(c1ccc(=O)[nH]n1)N1CCN(S(=O)(=O)c2ccc3ccccc3c2)CC1,5.65%
13,COC(=O)[C@@]12CCCCN1[C@H](c1ccc(-c3ccc(C(C)=O)cc3)c(OC)c1)[C@@H]1C(=O)N(C)C(=O)[C@@H]12.O=C(O)C(F)(F)F,15.8%
14,COC(=O)c1[nH]c2ccc(C)cc2c1NC(=O)NC1CCCCC1,9.66%
15,O=C(Cc1ccccc1)N1CCCC(c2nc(-c3cccs3)no2)C1 (stereo not drawn),3.04%
16,COc1cccc(CNS(=O)(=O)c2c(C(=O)N3CCCCC3)c(C)n(C)c2C)c1,14.8%
17,COc1cccc(NC(=O)CN(C)C(C)C(=O)Nc2ccc(C#N)cc2)c1 (stereo not drawn),-28.5%
18,CCOC(=O)C1(Cc2ccccc2Cl)CCN(C(=O)c2cc(C)on2)CC1,7.84%
19,C[N+]1(CCCCCCC(=O)/C=N/O)CCCCCC1.[I-],17.4%
20,CN(C)c1ccc(-c2nnn(CC(=O)NCc3ccc4c(c3)OCO4)n2)cc1,7.31%
21,COc1ccc(-n2cc(C(=O)O)c(=O)cc2C)cc1,8.32%
22,CC(C)(C)c1ccc(NS(=O)(=O)c2ccc(N)cc2)cc1,12.3%
23,O=C(c1ccccc1)N1CCN(c2ccc(N3CCOCC3)nn2)CC1,13.8%
24,COc1ccc(/C=N/NC(=O)c2nn(-c3ccc(Cl)cc3)c(=O)c3c(N)scc23)cc1,2.77%
